Test results published in PubChem BioAssay AID1345082 (National Center for Advancing Translational Sciences (NCATS), 2018).
In all, about 94,000 compounds went through this assay and about 4,000 (4.3%) were called active. The inconclusive results got no clear call from the source; some entries with a clear call stand among them for comparison. Calls follow the shape of the dose curve; as a rule, active = well fitted inhibition curve with a large enough effect; inconclusive = small, poorly fitted or top-dose-only effect; inactive = no such curve, though single readings can be large or run the other way. A potency beside an inconclusive call is a rough fit, not a confirmed value.

Test: Cytotoxic Profiling in NIH 3T3 Cell Line of Diverse Libraries Using Quantitative High-Throughput Screening; also: nearly all actives have a fitted effect of over 55% in size
Settings: NIH 3T3 viability, CellTiter-Glo ATP luminescence, 48-72 h; series mostly up to 96.7 µM
In short: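 Cytotoxicity was measured by CellTiter-Glo ATP luminescence after 48 or 72 h compound exposure at 37 °C. Mouse NIH 3T3 fibroblasts were seeded at 400 cells/well and dosed by 23 nL pin transfer.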
Potency is read from the fitted curve at half-maximal effect; tags tell the direction and shape of the fitted curve.

SMILES | Potency
O=C(c1nc(-c2ccc(Cl)cc2Cl)c2ccccn12)N1CCN(c2ncccn2)CC1 | inconclusive: 44.7 µM [inhibitor, partial curve, poor fit]
CC1(C(=O)NCc2cnccn2)CCc2cnc(Nc3ccccc3)nc21 (configuration not stated) | inconclusive: 56.2 µM [inhibitor, partial curve, poor fit]
COc1ccc2c(c1)OC[C@@H]1CN(C)C(=O)CCN(C(=O)c3ccccc3OC)[C@H]21 | inconclusive: 50.1 µM [inhibitor, partial curve, poor fit]
CCc1noc(-c2cn(C3CCN(C(=O)c4ccc(OC)cc4)C3)nn2)n1 (configuration not stated) | inconclusive: 44.7 µM [inhibitor, partial curve, poor fit]
O=C(c1ccncc1)N1CCC(CCOc2ccccc2)C1 (configuration not stated) | inconclusive: 50.1 µM [inhibitor, partial curve, poor fit]
O=C(NC1CC1)c1ccc2nc(-c3cccnc3)oc2c1 | inactive
Cc1ccc(NC(=O)NC[C@H]2O[C@@H](CC(=O)NCCN3CCOCC3)[C@H](O)[C@@H]2O)cc1 | inactive
CCc1cccc(NC(=O)C2CCc3ncc(-c4ccsc4)n3C2)c1 (configuration not stated) | inconclusive: 44.7 µM [inhibitor, partial curve, poor fit]
O=C(CC1COCCN1)NCc1ccc(N2CCCC2=O)cc1 (configuration not stated) | inactive
CO[C@@]1(C)C[C@@H](O)C12CCN(C(=O)CCn1c(C)cccc1=O)CC2 | inactive
Cc1cccc(C(=O)Nc2c(N3CCCCC3)c(-c3cccc(F)c3)nn2C)c1 | active: 44.7 µM
O=C(Nc1ccc([C@@H](O)[C@H]2COCC(=O)N2CCCc2ccccc2)cc1)c1cnccn1 | inconclusive: 79.4 µM [inhibitor, partial curve, poor fit]
COc1ccccc1-c1cccc(CN2CCCC(C(=O)NCc3cccc(F)c3)C2)c1 (configuration not stated) | inconclusive: 50.1 µM [inhibitor, partial curve, poor fit]
CC(=O)Nc1ccc(NC(=O)CN2C(=O)NC3(CCC(C(C)(C)C)CC3)C2=O)cc1 (configuration not stated) | inconclusive: 44.7 µM [inhibitor, partial curve]
CCOC(=O)[C@H]1[C@@H](O)C(=O)N(Cc2ccccc2)C12CCN(C(=O)OCc1ccccc1)CC2 | inconclusive: 50.1 µM [inhibitor, partial curve, poor fit]
CC(=O)Nc1cc(C2CC2)nn1-c1ccccc1 | inactive
O=C(Cc1ccsc1)N1CCOc2ccc(CN3CCCCCC3)cc2C1 | inconclusive: 50.1 µM [inhibitor, partial curve, poor fit]
COc1ccccc1C(=O)N1CCC(N2CCCOC2=O)CC1 | inactive
COc1cccc([S+](=O)([O-])N2CCCC3(CC(Cc4ccccc4)=NO3)C2)c1 (configuration not stated) | inconclusive: 50.1 µM [inhibitor, partial curve, poor fit]
CC1=C[C@@H](CNC(=O)CN(C)C)[C@H](C(C)C)C[C@H]1Cc1nc2ccccc2[nH]1 | active: 100 µM
Cc1ccccc1CN1CCc2nc(C(=O)Nc3ccccc3)oc2CC1 | inconclusive: 56.2 µM [inhibitor, partial curve, poor fit]

SMILES | Potency
Cc1cc(C)n(CC(=O)N2CC[C@@H](n3c(=O)n(C)c4cccnc43)C2)n1 | inactive
O=C(c1ccccc1F)N1CCN(C(=O)c2nc3cccnc3n(CCc3ccccc3)c2=O)CC1 | inconclusive: 50.1 µM [inhibitor, partial curve, poor fit]
O=C(NCc1cccs1)C1CCCN(c2ccnc3ccnn23)C1 (configuration not stated) | inconclusive: 70.8 µM [inhibitor, partial curve, poor fit]
COc1ccc(-c2cc(N3CCC(NC(=O)c4ccc(F)cc4F)C3)n[nH]2)cc1 (configuration not stated) | inconclusive: 50.1 µM [inhibitor, partial curve, poor fit]
Cc1nnc2ccc(N3CCC(NC(=O)c4ccc(C(F)(F)F)cc4)C3)nn12 (configuration not stated) | inactive
Cc1ccc(F)c(CN2CCC3(CCNCC3)C2)c1Cl | inconclusive: 50.1 µM [inhibitor, partial curve, poor fit]
COCCc1noc([C@@H]2CC(F)(F)CN2C(=O)c2ncccc2F)n1 | inactive
O=C(CCn1ccn2nc3c(c2c1=O)CCCC3)Nc1cccc(OC(F)(F)F)c1 | inactive
CC(CCc1ccccc1)NC(=O)c1ccc2nccn2c1 (configuration not stated) | inconclusive: 89.1 µM [inhibitor, partial curve, poor fit]
COC(=O)c1cnc2c(c1)n(CCCn1cnnn1)c(=O)n2C1CCCCC1 | inconclusive: 89.1 µM [inhibitor, partial curve, poor fit]
Cc1ccsc1C(=O)NC1CCCN(c2cc(-c3ccccc3)[nH]n2)C1 (configuration not stated) | inconclusive: 44.7 µM [inhibitor, partial curve, poor fit]
O=C(CCc1ccccc1)N1CCC(Oc2cnc3c(ccn3-c3cncnc3)c2)CC1 | inconclusive: 3.55 µM [inhibitor, full curve, poor fit]
Cc1ccc(-c2cc(C(=O)NCCCc3ccccc3)c3cnn(C)c3n2)cc1 | inactive
Cc1nc(C)c(C(=O)N2CCC(Oc3ccc(-c4noc(-c5ccccc5)n4)cc3)C2)s1 (configuration not stated) | inconclusive: 39.8 µM [inhibitor, partial curve, poor fit]
CC(C)C(=O)N1Cc2ccccc2CC2(CCCN(Cc3ccccn3)C2)C1 (configuration not stated) | inactive
CCN1C(=O)C2CC3(CCN(C(=O)Nc4ccccc4F)CC3)CN2C1=O (configuration not stated) | inactive
O=C(CCC1CCN(C(=O)c2ccccc2)CC1)NCC1CCCCC1 | inactive
Cc1cnc(CC2CCCN(C(=O)CCc3c[nH]c4ccccc34)C2)n1C(C)C (configuration not stated) | inactive
COCCCNC(=O)c1cc(-c2ccc(OC)cc2)nc2c1cnn2C | inconclusive: 50.1 µM [inhibitor, partial curve, poor fit]
CCNC(=O)N1CC(Oc2cccc(-c3nc(-c4ccccc4)no3)c2)C1 | inconclusive: 28.2 µM [inhibitor, partial curve, poor fit]
CNC(=O)c1cc(C2CC2)nc2c1c(C1CCN([S+](=O)([O-])c3ccsc3)CC1)nn2C | inconclusive: 50.1 µM [inhibitor, partial curve, poor fit]
